Reference: the supplement of paper PMC8728848
The other results are listed elsewhere or left out.

Legend:
Test in all cases: glycan array binding signal (z-score within array); higher = stronger binding
Details in all cases: glycan notation: IUPAC condensed, linker removed
Kdn(a2-3)Gal(b1-3)GlcNAc = target: Kdn(a2-3)Gal(b1-3)GlcNAc
Method in brief: (§1)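 The Consortium for Functional Glycomics database supplied 3228 glycan arrays, of which those lacking an available protein sequence were dropped. The binding signal, a within-array Z-score, was averaged across arrays of the same protein sequence and across linkers. Negative scores can be read as non-binding.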

Kdn(a2-3)Gal(b1-4)Glc = target: Kdn(a2-3)Gal(b1-4)Glc
Method in brief: as §1

Kdn(a2-3)Gal(b1-4)GlcNAc = target: Kdn(a2-3)Gal(b1-4)GlcNAc
Method in brief: as §1

[1] = target: Kdn(a2-3)Gal(b1-4)[Fuc(a1-3)]GlcNAc
Method in brief: as §1

Kdn(a2-6)Gal(b1-4)GlcNAc = target: Kdn(a2-6)Gal(b1-4)GlcNAc
Method in brief: as §1

[2] = target: Man(a1-2)Man(a1-2)Man(a1-3)Man
Method in brief: as §1

[3] = target: Man(a1-2)Man(a1-2)Man(a1-6)[Man(a1-3)]Man
Method in brief: as §1

Man(a1-2)Man(a1-3)Man = target: Man(a1-2)Man(a1-3)Man
Method in brief: as §1

[4] = target: Man(a1-2)Man(a1-3)[Man(a1-2)Man(a1-6)]Man
Method in brief: as §1

[5] = target: Man(a1-2)Man(a1-3)[Man(a1-2)Man(a1-6)]Man(a1-6)[Man(a1-2)Man(a1-2)Man(a1-3)]Man
Method in brief: as §1

[6] = target: Man(a1-2)Man(a1-3)[Man(a1-2)Man(a1-6)]Man(a1-6)[Man(a1-2)Man(a1-2)Man(a1-3)]Man(b1-4)GlcNAc(b1-4)GlcNAc
Method in brief: as §1

[7] = target: Man(a1-2)Man(a1-3)[Man(a1-6)]Man(a1-6)[Man(a1-2)Man(a1-3)]Man(b1-4)GlcNAc(b1-4)GlcNAc
Method in brief: as §1

[8] = target: Man(a1-2)Man(a1-6)[Man(a1-3)]Man(a1-6)[Man(a1-2)Man(a1-2)Man(a1-3)]Man
Method in brief: as §1

[9] = target: Man(a1-2)Man(a1-6)[Man(a1-3)]Man(a1-6)[Man(a1-2)Man(a1-2)Man(a1-3)]Man(b1-4)GlcNAc(b1-4)GlcNAc
Method in brief: as §1

Man(a1-3)[Man(a1-6)]Man = target: Man(a1-3)[Man(a1-6)]Man
Method in brief: as §1

[10] = target: Man(a1-3)[Man(a1-6)]Man(a1-6)[Man(a1-2)Man(a1-3)]Man(b1-4)GlcNAc(b1-4)GlcNAc
Method in brief: as §1

[11] = target: Man(a1-3)[Man(a1-6)]Man(a1-6)[Man(a1-3)]Man
Method in brief: as §1

[12] = target: Man(a1-3)[Man(a1-6)]Man(a1-6)[Man(a1-3)]Man(b1-4)GlcNAc(b1-4)GlcNAc
Method in brief: as §1

[13] = target: Man(a1-3)[Man(a1-6)]Man(b1-4)GlcNAc(b1-4)GlcNAc
Method in brief: as §1

Man(a1-6)Man = target: Man(a1-6)Man
Method in brief: as §1

Man(b1-4)GlcNAc = target: Man(b1-4)GlcNAc
Method in brief: as §1

Neu5Ac(a2-3)Gal = target: Neu5Ac(a2-3)Gal
Method in brief: as §1

[14] = target: Neu5Ac(a2-3)Gal(b1-3)GalNAc
Method in brief: as §1

[15] = target: Neu5Ac(a2-3)Gal(b1-3)GalNAc(b1-3)Gal(a1-4)Gal(b1-4)Glc
Method in brief: as §1

[16] = target: Neu5Ac(a2-3)Gal(b1-3)GalNAc(b1-3)Gal(b1-4)GlcNAc
Method in brief: as §1

[17] = target: Neu5Ac(a2-3)Gal(b1-3)GalNAc(b1-4)[Neu5Ac(a2-3)]Gal(b1-4)Glc
Method in brief: as §1

[18] = target: Neu5Ac(a2-3)Gal(b1-3)GalNAc(b1-4)[Neu5Ac(a2-8)Neu5Ac(a2-3)]Gal(b1-4)Glc
Method in brief: as §1

[19] = target: Neu5Ac(a2-3)Gal(b1-3)GalNAc6S
Method in brief: as §1

[20] = target: Neu5Ac(a2-3)Gal(b1-3)GlcNAc
Method in brief: as §1

[21] = target: Neu5Ac(a2-3)Gal(b1-3)GlcNAc(b1-3)Gal(b1-3)GlcNAc
Method in brief: as §1

[22] = target: Neu5Ac(a2-3)Gal(b1-3)GlcNAc(b1-3)Gal(b1-4)GlcNAc
Method in brief: as §1

[23] = target: Neu5Ac(a2-3)Gal(b1-3)GlcNAc(b1-3)GalNAc
Method in brief: as §1

[24] = target: Neu5Ac(a2-3)Gal(b1-3)GlcNAc6S
Method in brief: as §1

[25] = target: Neu5Ac(a2-3)Gal(b1-3)[Fuc(a1-4)]GlcNAc
Method in brief: as §1

[26] = target: Neu5Ac(a2-3)Gal(b1-3)[Fuc(a1-4)]GlcNAc(b1-3)Gal(b1-3)[Fuc(a1-4)]GlcNAc
Method in brief: as §1

[27] = target: Neu5Ac(a2-3)Gal(b1-3)[Fuc(a1-4)]GlcNAc(b1-3)Gal(b1-4)[Fuc(a1-3)]GlcNAc
Method in brief: as §1

[28] = target: Neu5Ac(a2-3)Gal(b1-3)[Neu5Ac(a2-3)Gal(b1-4)]GlcNAc
Method in brief: as §1

[29] = target: Neu5Ac(a2-3)Gal(b1-3)[Neu5Ac(a2-6)]GalNAc
Method in brief: as §1

B1: FedF (Escherichia coli), Q47212 (protein)
chain: MRLKYILIIPLLLISLSVFASTLQVDKSVSYDWINSSASSAQVTGTLLGTGKTNTTQMPALYTWQHQIYNVNFIPSSSGTLTCQAGTILVWKNGRETQYALECRVSIHHSSGSINESQWGQQSQVGFGTACGNKKCRFTGFEISLRIPPNAQTYPLSSGDLKGSFSLTNKEVNWSASIYVPAIAKSYRLDTSITLPDTVNLKQNQATPVYYTFSAPSVSNTITGIPNQNDMPSSNVKLTIGPIQSKTTALYVQPDATGSWYDLSKSITMTVVKSSMLNFKGINAKPGNVTLSVPIVFEIQ
glycan array binding signal (z-score) (Kdn(a2-3)Gal(b1-3)GlcNAc): 0.169 | glycan array binding signal (z-score) (Kdn(a2-3)Gal(b1-4)Glc): -0.203 | glycan array binding signal (z-score) (Kdn(a2-3)Gal(b1-4)GlcNAc): -0.211 | glycan array binding signal (z-score) [1]: -0.161 | glycan array binding signal (z-score) (Kdn(a2-6)Gal(b1-4)GlcNAc): -0.194 | glycan array binding signal (z-score) [2]: 0.005 | glycan array binding signal (z-score) [3]: 0.168 | glycan array binding signal (z-score) (Man(a1-2)Man(a1-3)Man): 0.095 | glycan array binding signal (z-score) [4]: 0.257 | glycan array binding signal (z-score) [5]: -0.119 | glycan array binding signal (z-score) [6]: -0.049 | glycan array binding signal (z-score) [7]: 0.061 | glycan array binding signal (z-score) [8]: -0.186 | glycan array binding signal (z-score) [9]: 0.086 | glycan array binding signal (z-score) (Man(a1-3)[Man(a1-6)]Man): 0.375 | glycan array binding signal (z-score) [10]: 0.04 | glycan array binding signal (z-score) [11]: -0.169 | glycan array binding signal (z-score) [12]: 0.09 | glycan array binding signal (z-score) [13]: -0.077 | glycan array binding signal (z-score) (Man(a1-6)Man): -0.145 | glycan array binding signal (z-score) (Man(b1-4)GlcNAc): -0.436 | glycan array binding signal (z-score) (Neu5Ac(a2-3)Gal): -0.149 | glycan array binding signal (z-score) [14]: -0.17 | glycan array binding signal (z-score) [15]: -0.261 | glycan array binding signal (z-score) [16]: -0.225 | glycan array binding signal (z-score) [17]: -0.17 | glycan array binding signal (z-score) [18]: -0.176 | glycan array binding signal (z-score) [19]: 0.178 | glycan array binding signal (z-score) [20]: -0.198 | glycan array binding signal (z-score) [21]: -0.192 | glycan array binding signal (z-score) [22]: 0.115 | glycan array binding signal (z-score) [23]: 0.236 | glycan array binding signal (z-score) [24]: -0.039 | glycan array binding signal (z-score) [25]: -0.424 | glycan array binding signal (z-score) [26]: -0.126 | glycan array binding signal (z-score) [27]: -0.014 | glycan array binding signal (z-score) [28]: -0.151 | glycan array binding signal (z-score) [29]: -0.219
